Here are results for 111 compounds from PubChem BioAssay AID1240 (Sanford-Burnham Center for Chemical Genomics, 2008).

Molecules are shown by their SMILES. Among all 50,000 compounds or so, about 800 (1.6%) showed an effect of 50% or more. This is one part of the list.

The target in this test is Bcl-2-like protein 10 (Homo sapiens) (UniProt Q9HD36). As to the kind of experiment: TR3 peptide-Bcl-B binding displacers, biochemical primary FP assay, phenotype converters (AID 1240).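 Note: 0% = Bcl-B with tracer peptide and DMSO and 100% = tracer peptide lacking Bcl-B.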 The following applies: GST-Bcl-B / FITC-TR3 peptide fluorescence polarization; stronger effect = higher value; compound at 3.75 mg/L. (In general: In fluorescence polarisation assays a small probe gives low polarisation when free and higher when bound to something large.)
Chain of UniProt Q9HD36 (Q9HD36 whole entry, looked up): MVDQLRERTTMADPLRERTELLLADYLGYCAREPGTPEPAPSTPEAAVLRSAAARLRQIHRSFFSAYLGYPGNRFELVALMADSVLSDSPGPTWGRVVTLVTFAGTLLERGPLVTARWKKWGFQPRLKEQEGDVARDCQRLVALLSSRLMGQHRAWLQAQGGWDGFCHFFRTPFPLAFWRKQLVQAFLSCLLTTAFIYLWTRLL
As for `O=C(Nc1ccc(Oc2ccccc2)cc1)c1ccc([N+](=O)[O-])cc1`, the displacement came to 1.2%. For `O=C(NC(=S)Nc1ccc(N2CCOCC2)c(Cl)c1)c1ccco1`, the displacement was found to be 10.7%.

Regarding `COCCNC(=O)COc1ccc(Cl)cc1`, the displacement worked out at 8.9%. The value for `C=CCNC(=O)CSc1nc2sc3c(c2c(=O)[nH]1)CCCC3` was -55.1%; that for `O=C(NCc1ccco1)Nc1ccc(Br)cc1` was -6.8%. As for `C=CCc1ccccc1OCCSc1nc2ccc(N)cc2s1`, the displacement was -10.9%.

As to `CN(C1=NC(=O)SC1)c1ccc(O)cc1`, the displacement was 16.3%. As for `Brc1ccc(/C=N/c2nc3c(s2)CCCC3)cc1`, the displacement came to 6.5%.

As for `COc1ccccc1NC(=O)c1cc2c(ccc3ccccc32)oc1=O`, the displacement was -0.9%. The value for `O=C(COc1ccc(Br)cc1)Nc1ccccc1CO` was -1%; that for `CSc1ccc(S(=O)(=O)N(CC(=O)N2CCC(C)CC2)c2ccc(C)cc2)cc1` was -3%. On to `COc1cc(C(=O)N2CCN(C(=O)COc3ccc(Cl)cc3)CC2)cc(OC)c1OC`, for which the displacement was -12.7%.

As for `Oc1ccc(Nc2nc(-c3ccc(Br)cc3)cs2)cc1`, the displacement worked out at 7.3%. Regarding `COc1ccccc1N/N=C(/C#N)C(=N)N1CCCCC1`, the displacement is 4.4%. Regarding `CC1CC/C(=C\C=C\N(C)C)C(=O)/C1=C/C=C/N(C)C` (stereo unspecified), the displacement was 22.9%. The value for `COc1cc2c(cc1NC(=O)COc1ccc(Cl)cc1C)oc1ccccc12` was -11.5%; that for `O=C1CSC2=NCN(c3cccc(Cl)c3)CN12` was -4.6%.

For the compound `CCOc1ccc(N(CC(=O)NC2CCCCC2)S(=O)(=O)c2ccc(Cl)cc2)cc1`, the displacement is -1%. For the compound `N#Cc1conc1-c1ccc2c(c1)OCO2`, the displacement was determined as 27%.

On to `COc1ccc(/C=C2/C(=O)NN(c3ccccc3)C2=O)cc1Br`, for which the displacement came out at 16.4%.

On to `O=C1CC(c2ccc3c(c2)OCO3)c2ccc3ccccc3c2N1` (stereo unspecified), for which the displacement is -0.1%. `CCCCNC(=O)c1nn2c(c1Cl)NC(c1ccccc1)CC2C(F)(F)F` (stereo unspecified): the displacement was found to be 11.9%.

Turning to `Cc1cc(C)cc(N2C(=O)NC(=O)/C(=C\c3ccc(Br)s3)C2=O)c1`, the displacement was -0.2%. With `O=c1c2ccccc2nc2n1CCS2`, the displacement was determined as 0.4%. The value for `COc1ccc(-n2c(=S)[nH]c3sc4c(c3c2=O)CC(C)(C)SC4)cc1` was -29.3%; that for `NC1=NC(=O)/C(=C/c2ccc(-c3cc([N+](=O)[O-])ccc3Cl)o2)S1` was 5%.

On to `COc1ccc(OC)c(NC(=O)CCC2CCCCC2)c1`, for which the displacement is -4.4%. The value for `CC1=C(C(=O)OC2CCCC2C)C(c2ccccc2Cl)NC(=O)N1` (stereo unspecified) was 1.8%. As for `Cc1n[nH]c(C)c1Sc1ccccc1N=Cc1cc(Cl)cc([N+](=O)[O-])c1O`, the displacement came to 117%. With `O=C(Cc1ccccc1)Nc1ccccc1C(=O)N1CCCCCC1`, the displacement came out at 2.9%. In the case of `COc1ccc(OC)c(NC(=O)CN(c2ccc(OC)cc2OC)S(C)(=O)=O)c1`, the displacement came out at 4.5%. In the case of `CN(C)c1ccc(C(=O)N2CCN(c3ccc(F)cc3)CC2)cc1`, the displacement stood at 4.9%.

For the compound `Cc1ccccc1OCC(=O)Nc1cccc(-c2nc3ncccc3o2)c1`, the displacement worked out at 3%. `CCc1c(C#N)c(N)nc2sc(C(=O)c3cccs3)c(N)c12`: the displacement was 4.2%. As for `CC(C)(CO)NC(=O)COc1ccc(Cl)cc1Cl`, the displacement is 10.2%. Consider `O=C(Nc1ccc(-c2nc3ccccc3[nH]2)cc1)c1ccc(Br)o1`, for which the displacement was -9%. In the case of `O=C1CC(N2CCN(c3ccccn3)CC2)C(=O)N1c1cc(Cl)cc(Cl)c1` (stereo unspecified), the displacement is 7.1%. With `CCN(CC)C(=O)c1sc(NC(=O)c2ccc(OC)cc2)c(C(=O)OC)c1C`, the displacement is -7.2%. The same measure for `CCCc1cc(=O)oc2cc(OCc3ccc(Cl)cc3)ccc12`: -5.5%; for `O=C(O)c1cc(NC(=O)c2ccc3c(c2)C(=O)N(CC2CCCO2)C3=O)cc(C(=O)O)c1` (stereo unspecified): 3.7%; for `COc1cc(/C=N\NC(=O)c2ccc(Br)cc2)ccc1OCc1ccccc1`: 6.4%. As for `Cc1nc2ccccc2c2nc3ccccc3n12`, the displacement turned out to be 14.9%. The same measure for `COc1ccc(CCNC(=O)c2ccc(Cl)c(Cl)c2)cc1OC`: 6%; for `O=C(NCCc1ccc(Cl)cc1)C(=O)Nc1nccs1`: 13.8%; for `CCNC(=S)N(Cc1ccc(Cl)cc1)C1CC(=O)N(c2ccccc2)C1=O` (stereo unspecified): -10.1%. Turning to `O=C(Nc1nnc(CSCc2ccccc2F)s1)C1CCCCC1`, the displacement is -8.3%.

On to `O=C(CC(C(=O)O)C1CCCO1)NCc1ccccc1` (stereo unspecified), for which the displacement stood at 5.2%.

For `Cc1ccc(C2CC(C(F)(F)F)n3ncc(C(=O)N4CCSCC4)c3N2)cc1` (stereo unspecified), the displacement was 7.1%.

Consider `CCOC(=O)C1=CN(c2ccc(C)c(C)c2)C=C(C(=O)OCC)C1c1ccc(OC)cc1`, for which the displacement turned out to be 2.4%. The value for `COc1ccc(/C=C2\SC(=O)N(c3c(C)n(C)n(-c4ccccc4)c3=O)C2=O)cc1` was 12.6%.

As to `COC(=O)c1cc(C(=O)Nc2cc(Cl)ccc2OC)cc([N+](=O)[O-])c1`, the displacement is 7%.

As for `N#CC(C#N)=C1C(=O)Nc2ccc(Br)cc21`, the displacement is -12%. For the compound `N#CSCCCCCOc1ccc(I)cc1`, the displacement is -1.3%. On to `CCC(=O)Nc1ccc(NC(=O)c2ccc(OC)cc2)cc1`, for which the displacement is 6.4%.

In the case of `COc1cccc(C(=O)NNC(=O)CCCOc2ccc(Cl)cc2Cl)c1`, the displacement was determined as 0.7%.

For `CC(=O)c1ccc(NC(=O)C2CC(=O)N(c3ccc(F)cc3)C2)cc1` (stereo unspecified), the displacement was determined as 13%. `CC1=NN(c2ccc(C)c(C)c2)C(=O)/C1=C/c1ccc([N+](=O)[O-])o1`: the displacement was 12.1%. The same measure for `O=[N+]([O-])c1ccc(S(=O)(=O)Nc2ccccc2CO)cc1`: -0.6%. In the case of `Cc1cc(NC(=O)c2cc(I)ccc2Cl)ccc1NC(=O)c1ccccc1`, the displacement is -0.6%. Consider `O=C(NCCNS(=O)(=O)c1ccccc1)c1c(O)c2ccccc2oc1=O`, for which the displacement was 4.9%. For `O=C(O)C1(P(=O)(c2ccccc2)c2ccccc2)CCC1`, the displacement came to 0%. Consider `N/C(=N\OC(=O)/C=C/c1ccccc1)c1cccnc1`, for which the displacement is -11.5%.

In the case of `CCCN1C(=O)c2ccccc2NC1c1ccc(C)cc1` (stereo unspecified), the displacement came to 14.7%. Consider `COc1ccc(OC)c(/C=C2\C(=O)NC(=O)N(c3ccccc3)C2=O)c1`, for which the displacement is -1.7%. With `O=C1NC(=O)N(c2cccc(Br)c2)C(=O)/C1=C/c1ccccc1Cl`, the displacement was determined as 1.5%. For `Cc1ccc(OCCn2c(SCC(N)=O)nc3ccccc32)cc1`, the displacement was -6.4%. Take `CCc1ccccc1NC(=O)C(C#N)=C1CCCCCC1`: the displacement is 1.1%. The value for `CCOC(=O)C1=C(C)N=c2s/c(=C\c3ccc(NC(C)=O)cc3)c(=O)n2C1c1ccc(OC)c(OC)c1` (stereo unspecified) was 88.9%; that for `O=C(NCCO)/C(=C\c1cccc(Br)c1)NC(=O)c1ccccc1` was -1%; that for `COc1ccc(C(=O)Oc2ccc([N+](=O)[O-])cc2)cc1S(=O)(=O)N1CCOCC1` was -8.4%. The value for `CCCN(/C=N/S(=O)(=O)c1ccc(Cl)cc1)CCC` was 8%.

Regarding `O=C(CSc1nnc(-c2cccs2)n1-c1ccccc1)c1ccccc1`, the displacement was 1.2%. The same measure for `COC(=O)c1cc(NC(=O)C(C)(C)C)cc(C(=O)OC)c1`: 4.4%.

As to `COc1ccc(C2=C/C(=C\c3ccc(OC(C)=O)c(OC)c3)C(=O)O2)cc1`, the displacement turned out to be 39.4%. Regarding `COc1ccc(OC)c(NC(=O)CN(Cc2ccccc2)S(=O)(=O)c2ccccc2)c1`, the displacement stood at 21.7%. `CC1=C(C(=O)Nc2ccc(C)cc2)C(c2ccccc2F)NC(=O)N1` (stereo unspecified): the displacement was -5.3%. In the case of `Nc1ncn(-c2ccc(Cl)cc2)c1C(=O)c1ccc([N+](=O)[O-])cc1`, the displacement was -8.3%. Consider `CCc1ccc(C2NC(=O)c3c(sc4c3CCCC4)N2)cc1` (stereo unspecified), for which the displacement is -13.8%. Consider `COc1ccc(NC(=O)C2CC2)c(OC)c1`, for which the displacement turned out to be 1%.

Consider `CC(=O)N1CCc2ccccc2C1CN1C(=O)c2ccccc2C1=O` (stereo unspecified), for which the displacement is -0.4%. Regarding `COc1ccc(C(=O)N2CCN(Cc3cccc(OC)c3OC)CC2)cc1`, the displacement is -7.2%. As for `O=C1C=C(Nc2ccccc2)C(=O)N1c1ccccc1Cl`, the displacement was determined as 12.8%. In the case of `CCn1c(SCC(=O)c2ccccc2)nc2ccccc2c1=O`, the displacement is -8%. Take `Cc1c(C(=O)OC(C)C)sc(NC(=O)C(C)(C)C)c1C(=O)OC(C)C`: the displacement is -7.9%. As to `CC(C)(C)c1cc(CCC(=O)NN2C(=O)CSC2=S)cc(C(C)(C)C)c1O`, the displacement is -8.5%. Consider `O=C(Nc1ccccc1C(=O)N1CCOCC1)c1ccco1`, for which the displacement stood at 7.7%.

In the case of `CCn1c(C)[n+](CCO)c2cc(Cl)c(Cl)cc21`, the displacement came out at 21.4%. The value for `O=C(Nc1cc(Oc2ccccc2)cc([N+](=O)[O-])c1)c1ccco1` was -8.4%. The same measure for `O=C1NC(=O)C(=Cc2ccc(OS(=O)(=O)c3ccc([N+](=O)[O-])cc3)cc2)C(=O)N1`: -4.5%; for `Cn1c2c(c(=O)n(C)c1=O)C(c1ccc(OCc3ccccc3)cc1)C1=C(N2)c2ccccc2C1=O` (stereo unspecified): -1.7%. As for `CC(C)=C1C2C=CC1C1C(=O)NC(=O)C21` (stereo unspecified), the displacement amounted to 6.9%.

For `O=C(CSc1ncccn1)Nc1ccc(Cl)cc1`, the displacement was -5.6%. As for `O=C1CC(NCc2ccc3c(c2)OCO3)C(=O)N1c1ccc(Br)cc1` (stereo unspecified), the displacement stood at 1%. For the compound `COC(=O)c1[nH]cnc1C(=O)Nc1ccc(C)cc1C(=O)c1ccccc1`, the displacement is -1.6%. The value for `O=C1C=CC(=NS(=O)(=O)c2ccc3ccccc3c2)C=C1` was -14.7%; that for `COc1cccc(C(=O)NNC(N)=O)c1` was -7.4%; that for `COc1cc(OC)cc(C(=O)Nc2ccc3oc(-c4ccc(I)cc4)nc3c2)c1` was -5.8%. With `COc1ccccc1/C=N/N=C1/NC(=O)C(Cc2ccc(Cl)cc2Cl)S1` (stereo unspecified), the displacement amounted to 9.8%. As for `COc1ccc(OC)c(NC(=S)NC(NC(=O)c2ccccc2Br)C(Cl)(Cl)Cl)c1` (stereo unspecified), the displacement was -3.2%. In the case of `O=C1NN(c2ccccc2)C(=O)/C1=C/c1ccc(F)cc1`, the displacement was -8%. On to `COC(=O)C1=C(C)N(C)C(C)=C(C(=O)OC)C1c1ccc(SC)cc1`, for which the displacement was -5.8%. On to `Fc1ccc(OCCOc2ncnc3ccccc23)cc1`, for which the displacement was -6%.

As to `O=C(CSc1nnc(-c2ccco2)n1-c1ccccc1)Nc1cccc([N+](=O)[O-])c1`, the displacement is -18.5%.

Consider `COc1ccc2c(=O)cc(C(F)(F)C(F)F)oc2c1`, for which the displacement is 11.9%. Regarding `CCCCNc1c([N+](=O)[O-])c(=O)n(C)c2ccccc12`, the displacement was determined as 2.9%. For the compound `Cc1ccc(N2C(=O)CC(N(C)Cc3ccccc3)C2=O)c(C)c1` (stereo unspecified), the displacement was 0.2%. Consider `CN=C(Nc1cccc(Cl)c1)SC1CC(=O)N(c2ccccc2F)C1=O` (stereo unspecified), for which the displacement is -10.1%. With `O=[N+]([O-])c1ccc(N2CCN(S(=O)(=O)c3ccc(Cl)cc3)CC2)cc1NCc1ccccc1`, the displacement is 5.7%.

With `CCOc1ccc(/C=C2\SC(=S)N(CCC(=O)Nc3ccccn3)C2=O)cc1`, the displacement was -4.3%. Take `COc1ccc(C(NC(=O)CC(C)C)NC(=O)CC(C)C)cc1OC`: the displacement is -1.1%. The same measure for `Cc1ccccc1C(=O)Nc1cccc(NC(=O)c2ccc([N+](=O)[O-])o2)c1`: 13.1%.
